Source: PubChem BioAssay AID1460 (National Center for Advancing Translational Sciences (NCATS), 2008)
The whole screen tested about 270,000 compounds, of which about 5,800 (2.1%) were called active. The shares of active, inactive and inconclusive entries below differ from those in the screen. The call rests on the fitted dose curve; in most records, active means well fitted inhibition curve with a large enough effect; inconclusive means small, poorly fitted or top-dose-only effect; inactive means flat fitted curve, though single readings scatter. Where the call is inconclusive, the potency comes from a doubtful curve fit.

Molecular target: Microtubule-associated protein tau (Homo sapiens) (UniProt P10636)
Chain of UniProt P10636 (P10636 whole entry, looked up): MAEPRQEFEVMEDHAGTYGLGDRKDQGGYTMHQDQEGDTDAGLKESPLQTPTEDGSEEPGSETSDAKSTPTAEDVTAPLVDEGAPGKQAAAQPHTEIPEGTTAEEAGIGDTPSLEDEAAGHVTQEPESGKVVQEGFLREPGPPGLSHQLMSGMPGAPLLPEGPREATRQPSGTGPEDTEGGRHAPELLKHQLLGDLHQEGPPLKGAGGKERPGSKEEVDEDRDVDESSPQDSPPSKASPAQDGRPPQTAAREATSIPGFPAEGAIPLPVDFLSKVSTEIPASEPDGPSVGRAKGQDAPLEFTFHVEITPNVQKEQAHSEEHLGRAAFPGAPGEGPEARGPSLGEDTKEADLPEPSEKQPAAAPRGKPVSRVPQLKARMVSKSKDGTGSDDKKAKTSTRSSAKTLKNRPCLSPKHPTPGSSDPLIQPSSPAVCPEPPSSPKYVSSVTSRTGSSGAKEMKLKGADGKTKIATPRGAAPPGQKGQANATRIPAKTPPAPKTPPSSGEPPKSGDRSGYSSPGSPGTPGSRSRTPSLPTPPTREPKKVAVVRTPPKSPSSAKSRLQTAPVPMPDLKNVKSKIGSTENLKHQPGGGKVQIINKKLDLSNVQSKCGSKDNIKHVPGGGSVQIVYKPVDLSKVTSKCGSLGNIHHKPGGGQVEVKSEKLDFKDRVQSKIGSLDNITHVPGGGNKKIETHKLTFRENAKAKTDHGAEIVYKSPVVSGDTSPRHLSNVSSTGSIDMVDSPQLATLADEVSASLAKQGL
Assay: qHTS for Inhibitors of Tau Fibril Formation, Thioflavin T Binding; further: nearly all actives have a fitted effect of over 55% in size
Conditions: recombinant tau K18 P301L (four-repeat tau fragment), heparin-induced fibrillization, ThT fluorescence; series mostly up to 57.4 µM
Summary of the method: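 Aggregation was driven by heparin (20 uM final) acting on recombinant tau […] bearing P301L in 100 mM sodium acetate pH 7; fibrils were detected with Thioflavin T.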
Potency means the concentration at half of the fitted maximal effect; tags describe the fitted curve by direction and shape.

| Compound | Potency |
| --- | --- |
| CCc1ccc(N2CC(C(=O)OC)CC2=O)cc1 (configuration not stated) | inactive |
| COCCCNc1oc(-c2ccc(COc3ccc(Cl)cc3)o2)nc1C#N | inconclusive: 17.8 µM [inhibitor, partial curve] |
| CN(C)CCC1Sc2ccccc2Oc2ccccc21 (configuration not stated) | inactive |
| Cc1ccc(-n2c(SCc3ccc([N+](=O)[O-])cc3)nc3ccccc3c2=O)cc1 | inconclusive: 39.8 µM [inhibitor, single point] |
| CCOC(=O)c1c(-c2ccc(C)cc2)csc1NC(=O)C1CCCO1 (configuration not stated) | inactive |
| COc1ccc2c(c1)c1c(c(=O)n(-c3ccc(F)c(Cl)c3)c(=O)n1Cc1ccccc1C)n2C | inactive |
| O=[N+]([O-])c1ccc(Sc2cccc3cccnc23)c2cccnc12 | inconclusive: 7.94 µM [inhibitor, partial curve] |
| CCC(=O)Nc1cccc(C(=O)OCc2cc(=O)n3nc(CC)sc3n2)c1 | inconclusive: 22.4 µM [inhibitor, single point] |
| CCN(CC)CCCNC(=O)c1nn(C)c2c1CS(=O)(=O)c1ccccc1-2 | inactive |
| Cc1ccc(C(=O)NNC(=S)Nc2cccc(Cl)c2Cl)cc1[N+](=O)[O-] | active: 25.1 µM |
| CCc1cc2c(=O)c(-c3cscn3)coc2cc1OC | inconclusive: 1.78 µM [inhibitor, full curve] |
| COc1ccc2c(C)nc(Nc3nc(-c4ccccc4)cc(=O)[nH]3)nc2c1 | inconclusive: 11.2 µM [inhibitor, partial curve, poor fit] |
| NC(=O)Nc1ccc(C(=O)OCC(=O)Nc2ccc(Cl)cn2)cc1 | inconclusive: 39.8 µM [inhibitor, single point] |
| CC(C)n1c(O)c(N=NC(=O)C2COc3ccccc3O2)c2ccccc21 (configuration not stated) | inconclusive: 11.2 µM [inhibitor, partial curve] |
| NC1=NC(=Nc2ccc(Cl)cc2)c2ccccc21 | inconclusive: 25.1 µM [inhibitor, partial curve] |
| Cc1cccc(NS(=O)(=O)c2ccc3c(c2)C(C)(C)C(=O)N3C)c1 | inactive |
| COC(=O)C1=C(C)N(Cc2ccccc2)C(=O)/C1=C\c1ccco1 | active: 15.8 µM |
| O=[N+]([O-])c1cc([N+](=O)[O-])c(N2CCCCCC2)cc1NCCO | inconclusive: 22.4 µM [inhibitor, single point] |
| COc1ccc(CN(C)C(=O)COC(=O)c2ccc3c(c2)OCO3)cc1OC | inactive |
| COC(=O)c1cn(C)c2ccc(S(=O)(=O)N3CC(C)CC(C)C3)cc2c1=O (configuration not stated) | inconclusive: 10 µM [inhibitor, partial curve] |
| CCN(CC)c1ccc2cc(C(N)=O)/c(=N\NC(=O)c3ccncc3)oc2c1 | inconclusive: 28.2 µM [inhibitor, single point] |
| COc1cccc(NC(=O)c2ccc(NCCCN3CCC(C)CC3)c([N+](=O)[O-])c2)c1 | inconclusive: 17.8 µM [inhibitor, partial curve] |
| CCCCC1C2C(=O)N(c3ccccc3)C(=O)C2ON1c1ccccc1 (configuration not stated) | inactive |
| CC1CCCC/C1=N/Nc1ccc([N+](=O)[O-])cc1[N+](=O)[O-] (configuration not stated) | inconclusive: 17.8 µM [inhibitor, partial curve] |

| Compound | Potency |
| --- | --- |
| Cc1ccc(NC(=O)c2sc3nc4c(cc3c2N)CN(Cc2ccccc2)CC4)cc1 | inconclusive: 7.94 µM [inhibitor, partial curve] |
| COc1ccc(S(=O)(=O)n2nc(OC(=O)c3ccncc3)cc2N)cc1 | inconclusive: 31.6 µM [inhibitor, single point] |
| COC(=O)Cn1cc(/C=N/NC(=O)COc2cccc3cccnc23)c2ccccc21 | inconclusive: 25.1 µM [inhibitor, partial curve] |
| COc1ccc(NC(=O)c2ccc3c(c2)OCO3)cc1Cl | inconclusive: 12.6 µM [inhibitor, partial curve] |
| O=C(CSCc1ccccc1Cl)N1CCN(c2ccc(Cl)cc2)CC1 | inconclusive: 0.891 µM [inhibitor, full curve, poor fit] |
| CCOC(=O)c1cccc(NC(=O)CCn2c(-c3ccc(F)cc3)cc(C(=O)OCC)c2C)c1 | inactive |
| N#Cc1ccc(/C=C/C(=O)c2ccccc2)cc1 | inconclusive: 17.8 µM [inhibitor, partial curve] |
| CCOC(=O)C1=C(C)NC2=C(C(=O)CC(C)(C)C2)C1c1ccc(N(C)C)cc1 (configuration not stated) | inactive |
| O=C1OC(NC(=O)c2ccccc2)C(n2cc(CO)nn2)=C1Cl (configuration not stated) | active: 7.08 µM |
| Cc1ccccc1NC(=O)Cn1nnc2c(cnn2-c2ccc(F)cc2)c1=O | inactive |
| CN(C)c1ccc(/C=N/NC(=O)c2ccc3nc[nH]c3c2)cc1 | active: 4.47 µM |
| C=CCn1c(SCC(=O)NCCCC(=O)OCC)nc2scc(-c3ccco3)c2c1=O | inactive |
| COc1ccc(CCn2c(NN=C(C)C)nc3c2c(=O)[nH]c(=O)n3C)cc1 | active: 22.4 µM |
| CCOc1ccccc1OCCCn1c(-c2ccc(Cl)cc2)nc2ccccc2c1=O | inactive |
| COCCCNC(=S)N/N=C/c1ccc(OC)c(Br)c1 | inconclusive: 15.8 µM [inhibitor, partial curve] |
| CN(C)c1ccc(N2CN=C3SCC(=O)N3C2)cc1 | active: 5.01 µM |
| Cc1c(Br)ccc(NC(=O)COc2ccccc2C(N)=O)c1C | inconclusive: 3.98 µM [inhibitor, partial curve, poor fit] |
| O=C(COc1cccc(Br)c1)N/N=C1\CCSC1 | inconclusive: 39.8 µM [inhibitor, single point] |
| C/C=C/c1ccc2oc(-c3ccc(O)cc3)c(C)c2c1 | active: 17.8 µM |
| O=C(CSc1ccc(-c2ccccn2)nn1)N1CCCC1 | inactive |
| CCOC(=O)c1cc2c(=O)n3ccccc3nc2n(Cc2ccco2)c1=NC(=O)c1cccc(OC)c1 | inactive |
| Cc1ccc(C(=O)c2cn(CC(=O)Nc3ccc(C)cc3Cl)c3nc(C)ccc3c2=O)cc1 | inconclusive: 44.7 µM [inhibitor, single point] |
| Cc1ccccc1Cn1nc(C)c(NC(=O)/C=C/c2cnn(C)c2)c1C | inactive |
